Survival data for 90 compounds are collected here from PubChem BioAssay AID463173 (ICCB-Longwood Screening Facility, Harvard Medical School, 2010).

Screen size: about 52,000 compounds; about 4,300 (8.3%) were called active. No stated cut-off is given here; in the data, active means survival mostly below about 52% (no sharp cut-off); inactive means mostly above about 56%. This is one part of the list.

This test has as its system DeltatarO mutant. Kind of test: growth inhibition of S. aureus wild type versus tarO mutant, primary screen, teichoic acid synthesis inhibitors, RN4220, OD600 (AID 463173). The note with it: OD600, 18 h, active compounds read low, screened at 18.75 µg/mL (by protocol).
`CC1(C)CC(=O)C(C=NC(C)(C)C)=C(O)C1`: the survival is inactive: 84%.
Then `Cc1cc(C)c(NC(=O)CSc2ccnc(=O)[nH]2)c(C)c1`, with inactive: 94%; and `O=C(NCCCN1CCCC1)c1ccccc1Cl`, with inactive: 86%; and `COc1ccc(NC(=O)C(NS(=O)(=O)c2ccc3c(c2)CCCC(=O)N3)C(C)C)c(OC)c1` (stereo not given), with inactive: 94%.
Then `Cc1cccc(CNC(=O)c2oc3c(c2C)-c2nn(Cc4ccccc4Cl)cc2CC3)c1`, with inactive: 66%; and `CC1(NS(=O)(=O)c2ccccc2)CCS(=O)(=O)C1` (stereo not given), with inactive: 98%.
With `Cc1c(Cl)cccc1NC(=O)CSc1ncnc2c1sc1ccccc12` the figure was inactive: 67%; with `Cc1ccc(NC(=O)Cc2c(C(=O)O)c(C)cn2C)cc1Cl`, inactive: 94%.
In the case of `CC(C)OCCCn1c(SCc2ccccc2C#N)nc2c(sc3ccccc32)c1=O`, the survival was inactive: 87%.
Then `NC(=O)CSc1nnc(COc2cccc3ccccc23)o1`, with inactive: 89%; and `CCN(CC)CC(C)CNC(=O)CN1C(=O)CSc2ccc(S(=O)(=O)N3CCOCC3)cc21` (stereo not given), with inactive: 119%.
In the case of `COc1cc(OC)c(NC(=O)CN2C(=O)CCn3nc(-c4cccn4C)cc32)cc1Cl`, the survival is inactive: 90%.
Then `O=C(CN1C2=NCCN2c2ccccc21)c1ccco1`, with inactive: 79%.
In the case of `CCc1cccc(NC(=O)Nc2ccc3c(c2)N(C)C(=O)c2ccccc2S3)c1`, the survival is active: 26%.
Then `c1ccc(-n2ncc3c(NC4CCCC4)ncnc32)cc1`, with inactive: 117%.
With `Cc1oc(C(C)(C)C)cc1C(=O)NC(Cc1ccccc1)C(=O)O` (stereo not given) the figure was inactive: 56%.
Turning to `COc1ccc(NS(=O)(=O)c2cc3[nH]c(=O)c(=O)[nH]c3cc2C)cc1Cl`, the survival was inactive: 94%.
Then `Cn1cc(S(=O)(=O)N2CCCCCC2)cc1C(=O)N1CCN(c2ccc(F)cc2)CC1`, with inactive: 75%; and `CCC(=O)N1CCc2cc(Br)cc(S(=O)(=O)CCC(=O)NCCc3ccc(OC)c(OC)c3)c21`, with inactive: 133%; and `CCOc1ccc(/C=C/c2nc(C#N)c(N3CCN(c4ccc(OC)cc4)CC3)o2)cc1`, with inactive: 72%.
Then `O=C(CC1Sc2ccc(C(F)(F)F)cc2NC1=O)Nc1ccc(Cl)c(C(F)(F)F)c1` (stereo not given), with active: 22%; and `CCOc1ccc(-c2cc(OC(=O)c3ccc(F)cc3)c3c(C)oc(C)c3c(=O)c2)cc1`, with inactive: 69%.
Then `CCOc1ccc(-n2c(SCc3ccc(C(=O)OC)o3)nc3c([nH]c4ccccc43)c2=O)cc1`, with inactive: 83%.
For the compound `CCCc1cc(=O)[nH]c(Nc2cccc(Cl)c2Cl)n1`, the survival is inactive: 68%.
With `CCN1C(=O)c2ccccc2Sc2ccc(NC(C)=O)cc21` the figure was inactive: 87%.
Then `COc1cc(C(=O)Nc2cc(C)ccc2OCc2cc(=O)n3c(C)csc3n2)cc(OC)c1OC`, with inactive: 58%; and `COc1cc(C(=O)Nc2cc3c(cc2C)n(C)c(=O)c(=O)n3C)cc(OC)c1OC`, with inactive: 84%; and `CC1Cc2ccccc2N1C(=O)CSc1nnc2c(n1)[nH]c1ccccc12` (stereo not given), with inactive: 70%.
`COc1ccccc1-c1noc(-c2ccc(N3CCC(C)CC3)c([N+](=O)[O-])c2)n1`: the survival was inactive: 113%.
With `FC(F)(F)c1cc(-c2ccc3c(c2)OCO3)nc(=S)[nH]1` the figure was inactive: 105%; with `CCC(=O)N1CCc2cc(S(=O)(=O)NC(Cc3ccccc3)C(=O)Nc3ccc(C)cc3)ccc21` (stereo not given), inactive: 64%.
With `Cc1ccc(NC(=O)c2sc3nc(-c4cc5ccccc5oc4=O)[nH]c(=O)c3c2C)c(C)c1` the figure was active: 39%.
With `CCCCNc1nc(Oc2ccc(=O)[nH]n2)nc(N(C)C)n1` the figure was inactive: 81%; with `C=C(C)Cn1c(=O)c2c(nc3n2CCN3c2ccc(CC)cc2)n(C)c1=O`, inactive: 107%.
For the compound `O=C(NCCN1CCCCC1)c1ccc(/C=N/O)nc1`, the survival was inactive: 98%.
Regarding `CCOC(=O)c1cccc(NC(=O)c2cc3c(=O)n(Cc4ccccc4)ccc3nc2C)c1`, the survival is inactive: 73%.
With `Fc1ccc(-n2cc(-c3ccccc3)c3c(NC4CCCCC4)ncnc32)cc1` the figure was inactive: 85%; with `CCc1nn(CC(=O)NCCCN(CC)CC)c(=O)c2cc3sc(C)cc3n12`, inactive: 108%.
With `CSc1ncc(C(=O)Nc2ccccc2C(=O)c2ccccc2)c(C(F)(F)F)n1` the figure was inactive: 81%.
Then `COc1ccc(CCNC(=O)c2cc3c(-c4ccccc4F)nn(C)c3s2)c(OC)c1`, with inactive: 85%.
Consider `CCCC(C(=O)NC1CCCC1)N(Cc1ccccc1)C(=O)Cn1nnc(-c2ccc(C)o2)n1` (stereo not given), for which the survival is inactive: 66%.
Then `O=C(Nc1ccc(Br)cc1F)c1cc(S(=O)(=O)NCc2ccc(F)cc2)ccc1F`, with inactive: 70%.
Then `COc1ccc(NC(=O)c2cc3c(s2)-c2c(C)cccc2OC3)c(OC)c1`, with active: 51%; and `COc1ccc(N2CCN(S(=O)(=O)c3ccc4c(c3)CC(C)N4C(C)=O)CC2)cc1` (stereo not given), with inactive: 61%; and `CCOc1ccccc1NC(=O)c1cc2c(Cl)nc3ccccc3c2s1`, with active: 41%.
Turning to `COc1ccc(NC(=O)C2Cc3ccccc3N2C(=O)c2ccccc2)c(OC)c1` (stereo not given), the survival was inactive: 80%.
With `O=C(CCC1N=C2c3ccccc3N=C(SCc3ccccc3F)N2C1=O)NC1CCCCC1` (stereo not given) the figure was inactive: 71%.
`CCOc1cc(C2C(C(=O)OC)=C(C)NC3=C2C(=O)c2ccccc23)cc(Cl)c1O` (stereo not given): the survival is active: 29%.
With `Cc1ccc(-n2ncc3c(NCCCN4CCOCC4)ncnc32)cc1` the figure was inactive: 88%; with `COc1cccc(-n2c(=O)c3c(C)c(C(=O)N(C)C)sc3n(Cc3ccc(F)cc3Cl)c2=O)c1`, inactive: 92%; with `COc1ccc(NC(=O)CN(Cc2ccccc2)S(=O)(=O)c2ccc(C)cc2)cc1Cl`, inactive: 110%.
Then `Fc1ccc(-c2nc(Nc3cccc(Cl)c3)nc3c2COc2ccccc2-3)cc1`, with inactive: 90%; and `CCn1c2ccccc2c2nnc(N3CCN(c4cc(C)ccc4C)CC3)nc21`, with inactive: 80%.
Then `COc1ccc2c(C)c(CCC(=O)NCCc3ccccc3OC)c(=O)oc2c1`, with inactive: 77%; and `COc1ccc(NCc2cc3cc4c(cc3n(CC(=O)Nc3ccc(F)cc3F)c2=O)OCO4)cc1`, with inactive: 67%.
With `CCC1CCCCN1C(=O)c1ccc2c(c1)N(Cc1cccc(Cl)c1)C(=O)c1ccccc1S2(=O)=O` (stereo not given), the survival was inactive: 69%.
Turning to `O=C(CN(Cc1ccc2c(c1)OCO2)C(=O)CSc1nc2ccccc2o1)NC1CCCCC1`, the survival is inactive: 83%.
Take `COC(=O)CCSc1nc2sc3c(c2c(=O)n1Cc1ccccc1)CCC(C(C)(C)C)C3` (stereo not given): the survival is inactive: 47%.
With `CC1=C(C(=O)OC2CCCCCC2)C(c2c(F)cccc2Cl)CC(=O)N1` (stereo not given) the figure was inactive: 57%; with `COc1ccc(N(Cc2cccs2)C(=O)COc2cccc(Cl)c2)cc1`, active: 42%; with `Cc1ccc(Cl)cc1NC(=O)c1oc2c(c1C)-c1[nH]ncc1CC2`, inactive: 101%.
With `CCCCCCSc1n[nH]c(=O)[nH]c1=O` the figure was inactive: 78%; with `CCN(CCCNC(=O)c1c(C)oc2ncn(CC(C)C)c(=O)c12)Cc1ccccc1`, inactive: 83%; with `Cn1c(=O)n(-c2ccc(F)c(Cl)c2)c(=O)c2sc3ccccc3c21`, inactive: 83%.
Turning to `CCOC(=O)c1c(Nc2ccc(C)cc2)nnc(-c2ccccc2)c1-c1ccccc1`, the survival is active: 1%.
Consider `Cc1ccc2c(c1)nnn2C1CCN(C(=O)c2ccccc2)CC1`, for which the survival is inactive: 101%.
Then `CCOc1ccccc1NS(=O)(=O)c1c(-c2ccc(C)cc2)csc1C(=O)OC`, with inactive: 94%.
With `Cc1c2cnn(-c3ccccc3)c(=O)c2c(C)n1CCCC(=O)Nc1ccc(F)cc1F` the figure was inactive: 72%.
Then `O=C(c1ccc2c(Cl)c3c(nc2c1)CCCC3)N1CCN(c2ccccc2)CC1`, with active: 20%.
For `CC(C)(C)C1CCc2onc(C(=O)Nc3sc4c(c3C(N)=O)CCCC4)c2C1` (stereo not given), the survival is active: 45%.
With `Cc1c(Cl)cccc1NC(=O)CCS(=O)(=O)c1ccc(Br)s1` the figure was inactive: 75%; with `NC(=O)c1cc(S(=O)(=O)NCC2CCC(C(=O)Nc3cccc(Cl)c3)CC2)cs1` (stereo not given), inactive: 76%.
In the case of `Cc1ccc(NC(=O)CSc2nc3ccccc3c3nc(CCn4c(C)nc5ccccc54)nn23)cc1F`, the survival is inactive: 89%.
With `O=C(Nc1ccc(F)c(F)c1)C1CCCN(S(=O)(=O)c2cccc3nonc23)C1` (stereo not given) the figure was inactive: 123%.
With `CC1(C)Cc2c(ccc3ccccc23)C(=O)N1` the figure was inactive: 98%; with `O=C(NCn1nc(-c2ccccc2)nc1-c1ccccc1)c1cccnc1`, inactive: 67%.
With `CC1CC(C)CN(CCC(=O)Nc2ccccc2F)C1` (stereo not given) the figure was inactive: 100%; with `Cc1ccc(C)c(N2CCN(C(=O)CN3C(=O)CSc4c3c(C)nn4-c3ccccc3)CC2)c1`, inactive: 88%.
Turning to `Cc1cc2cc3c(cc2nc1SCCN1CCCC1)OCCO3`, the survival is inactive: 124%.
With `COCCNC(=O)c1ccc2c(c1)N(Cc1cccc(Cl)c1)C(=O)c1ccccc1S2=O` (stereo not given) the figure was inactive: 95%; with `Cc1ccc(C)c(NC(=O)CCNS(=O)(=O)c2ccc3c(c2)CCCC(=O)N3)c1`, active: -4%; with `CN(C(=O)CSc1nnc2[nH]c(=O)cc(-c3ccccc3)n12)c1ccccc1`, inactive: 107%.
With `CCOC(=O)c1cc(-c2ccccc2)n(CC(=O)NCc2ccccc2OC)c1C` the figure was inactive: 101%.
With `Cc1ccc(NCC(=O)N=Nc2c(O)[nH]c3ccccc23)cc1` the figure was inactive: 83%.
With `Fc1ccc(CNc2ncnc3c2c(-c2ccccc2)cn3-c2ccccc2)cc1`, the survival is inactive: 116%.
For the compound `O=c1cc(O)c2ccccc2[nH]1`, the survival was inactive: 75%.
Then `Cn1c(=O)n(C)c2cc(S(=O)(=O)Nc3ccccc3C(=O)O)ccc21`, with inactive: 105%; and `Cc1ccc(CN2CCN(C3CCN(C(=O)OC(C)(C)C)CC3)C(=O)C2=O)cc1`, with inactive: 102%.
Then `CC(C)(C)c1ccc(C(=O)Nc2ccccc2C(=O)OCc2cc(=O)n3ccsc3n2)cc1`, with inactive: 73%; and `Cc1cc2nc3c(=O)n(C)c(=O)n(C)c3nc2cc1N=CN(C)C`, with inactive: 74%.
